Measured values published in ChEMBL document CHEMBL4888484, “Replenishing the malaria drug discovery pipeline: Screening and hit evaluation of the MMV Hit Generation Library 1 (HGL1) against asexual blood stage Plasmodium falciparum ,using a nano luciferase reporter read-out” (2022).
Among all 150,000 compounds or so, about 540 (0.36%) showed an effect of 50% or more. Some of the results follow. Where a SMILES comes first, the peptide text is derived from it. [ ]: non-standard residue; d: D form. The star is where a group is joined. Boc = CC(C)(C)OC(=O)*

Tested on: Plasmodium falciparum
Assay: Primary screen in NF54 nanoGlo assay, in single point, at 2uM, 72h; a lower Z score goes with more inhibition
Format: functional, Erythrocyte
Conditions: timepoint 72 hour

| Compound | % Inhibition [%] | Z score |
| --- | --- | --- |
| Cc1nn(CCO)c(C)c1CN(C)C[C@H]1COCCO1 | -14 | 2.57 |
| C[C@@H](c1nc2cc(Cl)ccc2[nH]1)N(C)C(=O)c1cn(C)cn1 | 2 | -0.35 |
| Cc1cccnc1CN(Cc1ccccc1)C(=O)[C@@H]1CC[C@H](N)C1 | -5 | 0.66 |
| CCOC(CN1CC(=O)NC2CCCCC21)OCC (stereo not drawn) | -10 | 1.97 |
| O=C(Nc1nc2c(s1)CN(Cc1ccccc1)CC2)c1cc(Cl)sc1Cl | 21 | -2.61 |
| O=C(CCc1cccc(Cl)c1)N1CC(C(F)F)C1 | -7 | 0.82 |
| O=C(NCC[C@H](O)c1ccccc1)C(F)(F)C1(O)CCC1 | 9 | -0.88 |
| c1ccc(CN2CC3CCC(C2)C3NCc2cc[nH]n2)cc1 (stereo not drawn) | -7 | 0.85 |
| O=C1NC2(CCCC2)C(=O)N1CCn1ccc(C(F)(F)F)n1 | -6 | 1.11 |
| O=C(Nc1ccccc1Cl)c1cccc(COc2cc(Cl)ccc2Cl)c1 | -1 | 0.08 |
| CN(C[C@H](O)CN1CCOCC1)C(=O)c1cc2sccc2[nH]1 | 0 | -0.06 |
| CC(NC[C@@H](O)Cc1ccccc1)c1cn2ccccc2n1 (stereo partly drawn) | 1 | -0.17 |
| O=C(Nc1nc2ccccc2s1)[C@@H]1CCCN1C(=O)c1ccco1 | -9 | 1.34 |
| CC(C)NC(=O)NC(=O)CN1CCCCCC1 | 1 | -0.19 |
| COc1cccc(NC(=O)CNC(=O)c2cn(-c3ccccc3OC)c(=O)c3ccccc23)c1 | -6 | 0.7 |
| CC(C)c1ccc([C@@H]2CCCCN2)cc1 | -8 | 1.03 |
| CC1(C)CN(C(=O)Nc2cccc(-n3cn[nH]c3=O)c2)C1(C)C | 1 | -0.12 |
| Cn1cc(-c2ccc(F)cc2)cc1C(=O)O | 10 | -0.89 |
| CCOC(=O)c1cc(OC(=O)c2ccc(F)cc2)n(-c2ccccc2)n1 | -7 | 1.07 |
| COC(C)(C)CS(=O)(=O)N1CC[C@]2(C1)CC2(F)F | -10 | 0.87 |
| CO[C@H]1CCN(CC(=O)NC2CCCCCC2)C1 | -8 | 1.55 |
| COCC1(S(=O)(=O)N[C@@H]2C[C@H]2c2ccc(Cl)c(F)c2)CC1 | -46 | 5.34 |
| C=CCN(CCC#N)c1nc(C)nc2c1cnn2C | -3 | 0.5 |
| Cc1cc(C(=O)Nc2ccc(-c3nnnn3C(C)C)c(F)c2)n(C)n1 | -5 | 0.62 |
| CC(C)NC(=O)[C@@H]1CCCN1C(=O)c1cccs1 | -7 | 1.02 |
| O=C(C[C@@H](Cn1cnnn1)c1ccc(Cl)cc1)NCC1CCOCC1 | -1 | 0.12 |
| Cc1ccc(N(C)C(=O)Cn2ncn(C)c2=O)nc1 | -7 | 1.07 |

| Compound | % Inhibition [%] | Z score |
| --- | --- | --- |
| CC1CCC2(CC1)OC[C@@H](C(=O)N1CCN(C)CC1)N2C(=O)c1cccc(C(F)(F)F)c1 (stereo partly drawn) | -7 | 1.28 |
| Cc1sc(-c2cc(C(F)(F)F)on2)cc1S(=O)(=O)NC[C@H]1CNCCO1 | 1 | -0.16 |
| O=C1COc2ccc(S(=O)(=O)Nc3nccc(C4CC4)n3)cc2N1 | 0 | 0 |
| Cc1cc(C)c2nc(NC(=O)c3ccc(S(=O)(=O)N4CCCCCC4)cc3)sc2c1 | 0 | 0.03 |
| Cc1ccc(F)c(CN2CCN[C@H](C(=O)NCc3ccccn3)C2)c1Cl | 3 | -0.45 |
| O=C(C1CCN(S(=O)(=O)c2cccc3nonc23)CC1)N1CCC(Cc2nncn2Cc2ccccc2)CC1 | -27 | 3.14 |
| Cc1nn(CN2CC(C)OC(C)C2)c(=S)s1 (stereo not drawn) | -4 | 0.65 |
| CCOC(=O)C[C@H](N)c1ccc(F)cc1 | -17 | 1.82 |
| CC1CCCC(OCc2cccc(NC(=O)c3c[nH]c(=O)c(Cl)c3)c2)C1 (stereo not drawn) | -13 | 1.33 |
| O=C(c1cc2cc(F)ccc2s1)N1CCC[C@@H]1Cn1nccn1 | -9 | 1.61 |
| Cc1c(Cl)c(C(=O)NC[C@]2(O)CCCC(C)(C)C2)nn1C | 4 | -0.68 |
| C#CCNC(=O)C(C#N)C(=O)CC(C)c1ccc(F)cc1 (stereo not drawn) | 14 | -1.66 |
| COc1c(F)cc([C@H]2CC(=O)NCc3nc4c(C)cccn4c32)cc1Cl | -16 | 3.3 |
| COc1cc2nc(-c3cc4c(c(OC)c3)OCCN(C(C)=O)C4)cc(C)c2cc1OC | 10 | -1.39 |
| CC(=O)N(C)[C@@H](C)C1=CCN(CC(=O)Nc2cnccn2)CC1 | -1 | 0.16 |
| Cc1cc(O[C@H]2CCN(S(=O)(=O)c3ccccc3)C2)cc(=O)n1C | -2 | 0.38 |
| N#CCCn1nnnc1-c1ccccn1 | -14 | 1.18 |
| Cc1ncc(C(=O)NCCc2nnc(N)s2)cn1 | 2 | -0.28 |
| CN1CCN(S(=O)(=O)c2ccc(Cl)s2)C[C@]12CCNC(=O)CC2 | -2 | 0.41 |
| Cc1cccc(N(C)C(=O)Cc2cccs2)n1 | -2 | 0.49 |
| NC(=O)C1C(=O)N(CCc2ccco2)C23CCOCC2C1c1ccccc1O3 (stereo not drawn) | -9 | 1.72 |
| Cc1ccc(S(=O)(=O)N2CCC(C(=O)OCC(=O)N3CC(=O)Nc4ccccc43)CC2)cc1 | -2 | 0.3 |
| CC(C)(C)c1cc(-c2cc(C(C)(C)C)n(-c3ccccc3)n2)nn1-c1ccccc1 | -1 | 0.08 |
| CCOc1cccc(C(=O)Nc2ccc(N3CCOCC3)c(NC(=O)c3cccc(OCC)c3)c2)c1 | -7 | 1.39 |
| O=S(=O)(N[C@H]1[C@H](O)[C@H](O)C[C@@H]1c1cncnc1)c1ccc(Cl)cc1 | -11 | 1.65 |
| CC(C)(C)OC(=O)N[C@H](Cc1ccccc1)C(=O)N1CCC[C@@H]1C(=O)O (Boc-[dF]-[dP]-OH) | -7 | 0.85 |
| CCN(CC)CCN(CC(O)COCc1ccc2c(c1)OCO2)CC(O)COCc1ccc2c(c1)OCO2 (stereo not drawn) | -14 | 1.5 |
